# Assay results published in PubChem BioAssay (NCATS).
# Where “and” joins values, the source holds several entries; their conditions need not be identical. Identical values can stand only once. Inconclusive results, whose numbers are uncertain, are shown with a selection of clear calls. For some assays here: Potencies of inconclusive entries are left out as doubtful fits. For some assays here: A note “side channel” means that the fit belongs to a control or component signal, not to the main read-out. Calls of active or inactive are those of the source. Unless noted, calls come from the whole dose curve; as a rule, active = well fitted curve in the direction sought with a large enough effect; inconclusive = small, poorly fitted or top-dose-only effect, or another doubt; inactive = no such curve, though single readings can be large; an effect the other way counts as inactive or inconclusive.
# Tests used:
# [1] = biological target: Glucocorticoid receptor (Homo sapiens) (UniProt P04150); assay: qHTS assay for small molecule antagonists of glucocorticoid receptor signaling (AID 588533; active = well fitted inhibition curve with a large enough effect in the signal ratio, with a control signal flat, not every such curve was filed as active; inconclusive = small, poorly fitted or top-dose-only effect, or effect the other way, or a change in a side signal; the % refers to the signal ratio;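 note: cells stimulated with 2 nM dexamethasone as agonist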; note: potency is the fitted concentration of half-maximal effect; for activity change, negative = inhibition: % is set by controls: 0 for no effect and ±100 for the full control effect); conditions: HeLa MMTV-bla, GRE beta-lactamase ratio, antagonist mode, 18 h; activity change, negative = inhibition: at 76.8 µM (top of the series)
# [2] = biological target: Peroxisome proliferator-activated receptor gamma (Homo sapiens) (UniProt P37231); assay: qHTS assay for small molecule agonists of peroxisome proliferator-activated receptor gamma signaling (AID 588536; active = well fitted curve in the direction sought with a large enough effect in the signal ratio, with a control signal flat, not every such curve was filed as active; inconclusive = small, poorly fitted or top-dose-only effect, or effect the other way, or a change in a side signal; inactive = no such curve, though single readings can be large or run the other way; the % refers to the signal ratio;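 note: 0% = DMSO basal wells and 100% = rosiglitazone at 2 µM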); conditions: HEK293 PPARg-UAS-bla, beta-lactamase ratio, 16 h; activation: at 76.7 µM (top of the series), percent of rosiglitazone response, DMSO as zero
# Outline: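 Using GeneBLAzer HEK293 cells, response was quantified by CCF4 fluorescence and normalized between basal DMSO (0%) and rosiglitazone 2 uM (100%); curves yielded half-maximal stimulation concentration and efficacy.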
# [3] = biological target: Thyroid hormone receptor beta (Homo sapiens) (UniProt P10828); assay: qHTS assay for small molecule agonists of thyroid hormone receptor beta signaling (AID 588545; calls by dose curve; note: potency is the fitted concentration of half-maximal effect); conditions: TR-UAS-bla GripTite HEK 293, beta-lactamase ratio, agonist mode, 18 h; activation: at 76.7 µM, percent of T3 response, DMSO as zero
# Outline: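 Agonist activity was read as beta-lactamase CCF4 fluorescence (405 ex, 460/530 em), scaled between DMSO (0%) and 10 nM T3 (100%), then Hill-fitted for EC50 and efficacy. HEK 293 TR-UAS-bla cells in 2% charcoal/dextran FBS medium were exposed 18 h at 37 C.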
# [4] = qHTS assay for small molecule agonists of the antioxidant response element (ARE) signaling pathway (AID 651741; active = well fitted activation curve with a large enough effect in the signal ratio; inconclusive = small, poorly fitted or top-dose-only effect, or effect the other way, or a change in a side signal; the % refers to the signal ratio; note: % of control where 0% means no effect); conditions: HepG2 ARE-bla reporter, beta-lactamase FRET ratio, 16 h
# Outline: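 Stably integrated ARE-beta-lactamase reporter HepG2 cells; 16 h compound incubation, 37 C; LiveBLAzer FRET substrate 2 h at room temperature; fluorescence intensity.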
# [5] = biological target: Peroxisome proliferator-activated receptor delta (Homo sapiens) (UniProt Q03181); assay: qHTS assay for small molecule antagonists of peroxisome proliferator-activated receptor delta signaling (AID 588535; active = well fitted inhibition curve with a large enough effect in the signal ratio, with a control signal flat, not every such curve was filed as active; inconclusive = small, poorly fitted or top-dose-only effect, or effect the other way, or a change in a side signal; inactive = no such curve, though single readings can be large or run the other way; the % refers to the signal ratio); conditions: HEK293T PPARd-UAS-bla, beta-lactamase FRET ratio, 18 h; activity change, negative = inhibition: at 76.7 µM (top of the series) unless noted
# Outline: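 Fluorescence from CCF4-loaded GeneBLAzer PPAR-delta-UAS-bla HEK293T cells (2 hrs RT loading) quantified reporter inhibition after an 18 hr, 37 C compound exposure across a titration.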
# [6] = biological target: Thyroid hormone receptor beta (Homo sapiens) (UniProt P10828); assay: qHTS assay for small molecule antagonists of thyroid hormone receptor beta signaling (AID 588547; active = well fitted inhibition curve with a large enough effect in the signal ratio, with a control signal flat, not every such curve was filed as active; inconclusive = small, poorly fitted or top-dose-only effect, or effect the other way, or a change in a side signal; the % refers to the signal ratio; note: potency is the fitted concentration of half-maximal effect); conditions: TR-UAS-bla HEK293, beta-lactamase ratio, antagonist mode, 18 h
# Outline: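 TR-UAS-bla GripTite HEK293 cells in 2% charcoal/dextran FBS medium; compounds 0.59 nM to 92 uM with T3 at 0.4nM final, 18 h at 37 C. Beta-lactamase read by CCF4 fluorescence (460/530 nm); Hill fits gave IC50 and efficacy.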
# [7] = qHTS assay for cell viability of the p53RE-bla HCT-116 cell line (AID 743292); note: % is set by controls: 0 for no effect and ±100 for the full control effect; nearly all actives have a fitted effect of over 55% in size
# Outline: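 Quantitative high-throughput format: compounds in DMSO were pinned onto p53RE-bla HCT-116 cells (4,000/well) and incubated 16 h at 37 C. Total intracellular ATP, read by CellTiter-Glo luminescence, reflects viable cell number.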
# [8] = biological target: Peroxisome proliferator-activated receptor delta (Homo sapiens) (UniProt Q03181); assay: qHTS assay for small molecule agonists of peroxisome proliferator-activated receptor delta signaling (AID 588534; calls by dose curve;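 note: 0% = DMSO basal wells and 100% = positive control agonist at 10 µM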); conditions: HEK293T PPARdelta-UAS-bla, beta-lactamase ratio, 18 h; activation: at 76.7 µM (top of the series) unless noted
# Outline: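 Agonist-mode qHTS; reporter cells, 5 hrs 37 C pre-incubation; compound titration, 18 hrs 37 C; CCF4 dye, 2 hrs RT; fluorescence read. EC50/efficacy via Hill fit.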
# [9] = biological target: Peroxisome proliferator-activated receptor gamma (Homo sapiens) (UniProt P37231); assay: qHTS assay for small molecule antagonists of peroxisome proliferator-activated receptor gamma signaling (AID 588537; active = well fitted inhibition curve with a large enough effect in the signal ratio, with a control signal flat, not every such curve was filed as active; inconclusive = small, poorly fitted or top-dose-only effect, or effect the other way, or a change in a side signal; the % refers to the signal ratio;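 note: reporter cells co-stimulated with 50 nM rosiglitazone agonist during compound treatment; % of control where 0% means no effect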); conditions: HEK293 PPARg-UAS-bla, beta-lactamase ratio, antagonist mode; activity, negative = inhibition: at 76.8 µM (top of the series) unless noted
# Outline: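 Fluorescence at 460 and 530 nm (405 nm excitation) reported beta-lactamase cleavage of CCF4 after 2 h room-temperature loading. HEK293 reporter cells in 1% charcoal/dextran-treated FBS had received compound and rosiglitazone for 16 h.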
# [10] = biological target: Retinoic acid receptor RXR-alpha (Homo sapiens) (UniProt P19793); assay: qHTS assay for small molecule antagonists of retinoid X receptor alpha signaling (AID 588546; active = well fitted inhibition curve with a large enough effect in the signal ratio, with a control signal flat, not every such curve was filed as active; inconclusive = small, poorly fitted or top-dose-only effect, or effect the other way, or a change in a side signal; inactive = no such curve, though single readings can be large or run the other way; the % refers to the signal ratio;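 note: cells stimulated with 9-cis-retinoic acid as agonist; % is set by controls: 0 for no effect and ±100 for the full control effect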); conditions: HEK293T RXRa-UAS-bla, beta-lactamase ratio, antagonist mode
# Outline: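 Beta-lactamase reporter inhibition, read as CCF4 fluorescence ratio (ex 405, em 460/530 nm) after 2 h at RT. HEK293T UAS-bla cells, 2500/well, were stimulated with 9-cis-RA at 500 or 100 nM final alongside test compound for 18 h at 37 C.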
# [11] = biological target: Retinoic acid receptor RXR-alpha (Homo sapiens) (UniProt P19793); assay: qHTS assay for small molecule agonists of retinoid X receptor alpha signaling (AID 588544; calls by dose curve; note: potency is the fitted concentration of half-maximal effect;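 for activation: 0% = DMSO basal wells and 100% = reference agonist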); conditions: HEK293T RXRa-UAS-bla, beta-lactamase reporter, 18 h; activation: at 76.7 µM (top of the series)
# [12] = qHTS assay for small molecule agonists of the antioxidant response element (ARE) signaling pathway measured by Nrf2-dependant transcriptional activity (AID 720636; active = well fitted curve in the direction sought with a large enough effect in the repeat runs; inconclusive = weak or mixed curves; inactive = no such curve, though single readings can be large; an effect the other way counts as inactive or inconclusive; note: potency is the fitted concentration of half-maximal effect)
# Outline: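 First, ARE-luc HepG2 cells attached for 6 hr at 37 C in 1% dialyzed FBS medium. Next, compound or DMSO was added and incubated 16 hr. Finally, ONE-Glo reagent was added and luminescence measured after 30 min.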
# [13] = Cell Viability - LYMP2-012 (AID 982); conditions: LYMP2-012 lymphoblastoid cell viability qHTS; activity change, negative = cytotoxicity: at 92.2 µM (top of the series);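 note: cellular ATP by luciferase luminescence where a drop means cytotoxicity; cells exposed to compound for one day before reading; 0% = DMSO only and full loss = 92 µM tetraoctylammonium bromide; nearly all actives have a fitted effect of over 55% in size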
# [14] = qHTS assay to identify small molecules that stimulate interleukin-8 (IL-8) secretion (AID 651758; active = well fitted activation curve with a large enough effect in the signal ratio; inconclusive = small, poorly fitted or top-dose-only effect, or effect the other way, or a change in a side signal; the % refers to the signal ratio; note: 0% is about no effect); conditions: HTRF ratio (665/615); activation: at 92.2 µM (top of the series)
# Outline: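 Compounds are added to THP-1 cells (2000 per well) and left 16 hrs at 37 C. A labeled anti-IL-8 antibody pair is then added, and IL-8 secretion is measured by time-resolved FRET after 1-3 hrs at room temperature.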
# [15] = Cellular Toxicity (caspase-3) N2a (AID 665); conditions: N2a cells, luminescence, normalized: DMSO 0%, 10 µM staurosporine 100%; at 92.2 µM (top of the series);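 note: compound exposure lasted 16 h at 37 °C before readout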
# Outline: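 Caspase-3/7 activation, measured as increased luminescence from aminoluciferin release, is quantified in mouse N2a cells exposed to compounds for 16 h. Values are normalized to DMSO and 10 uM staurosporine, with AC50 derived by Hill modelling.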
# [16] = Cell Viability - LYMP2-003 (AID 965); conditions: LYMP2-003 lymphoblastoid cell viability; activity change, negative = cytotoxicity: at 92.2 µM (top of the series);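 note: potency is the fitted concentration of half-maximal effect; cells exposed to compounds for 24 h before reading; nearly all actives have a fitted effect of over 50% in size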
# Outline: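 CellTiter-Glo luminescence quantified ATP loss after 24 h compound treatment of LYMP2-003 lymphoblastoid cells at 37 C. Titration series were fitted with the standard Hill equation to give AC50.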
# [17] = qHTS assay for cell viability of HEK293 cells (AID 743288); conditions: ATP luminescence (CellTiter-Glo), 18 h; max response: hits give low values; note: % is set by controls: 0 for no effect and ±100 for the full control effect; nearly all actives have a fitted effect of over 50% in size
# Outline: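 Readout is luciferase-coupled ATP content (CellTiter-Glo luminescence, 30 min room temperature) as a measure of metabolically competent cells. Parental HEK293 cells were plated 5 h or more before compound addition, then treated 18 h at 37 C.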
# [18] = biological target: Cytochrome P450 3A4 (Homo sapiens) (UniProt P08684); assay: qHTS Assay for Inhibitors and Substrates of Cytochrome P450 3A4 (AID 884); conditions: recombinant CYP3A4, Luciferin-PPXE luminescence; activity change, negative = inhibition: at 57.1 µM (top of the series) unless noted; note: % is set by controls: 0 for no effect and ±100 for the full control effect; nearly all actives have a fitted effect of over 50% in size
# Outline: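 Luminescent readout of luciferin produced by CYP3A4 (20 nM) dealkylation of Luciferin-PPXE, 25 uM (its KM). NADPH-driven reaction ran 60 min at RT after 10 min compound preincubation; data scaled to 57 uM ketoconazole as 100% inhibition.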
# [19] = MultiTox-Fluor Cytotoxicity Assay - LYMP1-002 - Dead Cells (AID 960); conditions: LYMP1-002 lymphoblastoid cells, dead-cell protease fluorescence; cytotoxicity (dead cells): at 46.1 µM (top of the series);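 note: 0% = DMSO and 100% = tetraoctylammonium bromide; nearly all actives have a fitted effect of over 60% in size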
# Outline: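 Cells were plated, rested 5 hr, then treated with compound dilution series for 16 hr at 37 C. After adding substrate reagent and 60 min at room temperature, dead-cell protease fluorescence gave concentration-response curves fitted by the Hill equation.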
# [20] = Cell Viability - LYMP2-004 (AID 966); conditions: LYMP2-004 lymphoblastoid cell viability, qHTS; activity change, negative = cytotoxicity: at 92.2 µM (top of the series);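 note: plate controls were DMSO only for no effect and tetraoctylammonium bromide control for full effect; nearly all actives have a fitted effect of over 65% in size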
# Outline: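 qHTS cytotoxicity: human lymphoblastoid line, 24 hr compound treatment, 37 C, complete medium. Viability read as cellular ATP via luciferase luminescence; tetraoctylammonium bromide served as positive control.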
# [21] = Cell Viability - LYMP2-005 (AID 967); note: potency is the fitted concentration of half-maximal effect
# Outline: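 LYMP2-005 human lymphoblastoid cells (2500/well) were treated with compounds for 24 h at 37 C. Intracellular ATP was then measured by CellTiter-Glo luminescence after 30 min at room temperature. AC50 values came from Hill-equation fits of qHTS concentration-response data.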
# [22] = activation: at 96 µM (top of the series) unless noted
# Tags give direction and shape of the fitted curve or compound fluorescence and quenching.
# Sequence of UniProt Q03181 (Q03181 whole entry, looked up): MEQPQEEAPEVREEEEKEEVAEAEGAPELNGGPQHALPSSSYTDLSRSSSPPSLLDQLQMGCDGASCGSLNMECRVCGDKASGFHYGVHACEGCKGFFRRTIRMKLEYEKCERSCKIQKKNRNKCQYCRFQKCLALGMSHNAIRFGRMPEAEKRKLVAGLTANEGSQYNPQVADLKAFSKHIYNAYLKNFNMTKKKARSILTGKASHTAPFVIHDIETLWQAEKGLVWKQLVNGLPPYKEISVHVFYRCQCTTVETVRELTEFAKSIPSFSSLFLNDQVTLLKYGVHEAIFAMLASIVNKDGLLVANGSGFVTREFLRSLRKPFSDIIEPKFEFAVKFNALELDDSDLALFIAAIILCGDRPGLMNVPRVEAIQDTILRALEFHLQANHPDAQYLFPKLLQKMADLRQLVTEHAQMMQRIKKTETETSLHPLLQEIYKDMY
# Sequence of UniProt P10828 (P10828 whole entry, looked up): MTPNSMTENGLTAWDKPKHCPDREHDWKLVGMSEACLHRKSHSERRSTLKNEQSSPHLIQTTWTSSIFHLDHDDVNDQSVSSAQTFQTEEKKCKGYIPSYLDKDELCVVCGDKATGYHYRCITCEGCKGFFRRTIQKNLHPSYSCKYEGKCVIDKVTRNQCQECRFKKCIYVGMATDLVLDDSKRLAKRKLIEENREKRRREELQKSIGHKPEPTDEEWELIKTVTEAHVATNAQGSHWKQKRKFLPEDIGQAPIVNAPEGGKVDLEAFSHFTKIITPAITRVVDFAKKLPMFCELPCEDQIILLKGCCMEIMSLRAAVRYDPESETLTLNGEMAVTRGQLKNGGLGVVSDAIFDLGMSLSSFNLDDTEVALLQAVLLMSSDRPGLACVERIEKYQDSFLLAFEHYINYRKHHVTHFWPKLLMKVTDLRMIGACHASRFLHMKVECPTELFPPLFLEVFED
# Sequence of UniProt P19793 (P19793 whole entry, looked up): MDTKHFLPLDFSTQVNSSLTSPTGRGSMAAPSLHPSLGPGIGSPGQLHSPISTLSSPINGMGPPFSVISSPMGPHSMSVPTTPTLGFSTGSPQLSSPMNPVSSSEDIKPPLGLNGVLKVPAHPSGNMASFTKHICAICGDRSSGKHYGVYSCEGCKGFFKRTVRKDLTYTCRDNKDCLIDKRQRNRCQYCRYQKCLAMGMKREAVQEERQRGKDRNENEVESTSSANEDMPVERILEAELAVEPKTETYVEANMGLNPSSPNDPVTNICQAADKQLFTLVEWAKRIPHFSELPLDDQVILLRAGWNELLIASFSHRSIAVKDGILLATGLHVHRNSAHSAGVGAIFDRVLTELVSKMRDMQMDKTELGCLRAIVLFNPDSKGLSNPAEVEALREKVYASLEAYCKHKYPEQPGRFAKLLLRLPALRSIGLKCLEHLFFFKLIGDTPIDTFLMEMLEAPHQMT
# Sequence of UniProt P08684 (P08684 whole entry, looked up): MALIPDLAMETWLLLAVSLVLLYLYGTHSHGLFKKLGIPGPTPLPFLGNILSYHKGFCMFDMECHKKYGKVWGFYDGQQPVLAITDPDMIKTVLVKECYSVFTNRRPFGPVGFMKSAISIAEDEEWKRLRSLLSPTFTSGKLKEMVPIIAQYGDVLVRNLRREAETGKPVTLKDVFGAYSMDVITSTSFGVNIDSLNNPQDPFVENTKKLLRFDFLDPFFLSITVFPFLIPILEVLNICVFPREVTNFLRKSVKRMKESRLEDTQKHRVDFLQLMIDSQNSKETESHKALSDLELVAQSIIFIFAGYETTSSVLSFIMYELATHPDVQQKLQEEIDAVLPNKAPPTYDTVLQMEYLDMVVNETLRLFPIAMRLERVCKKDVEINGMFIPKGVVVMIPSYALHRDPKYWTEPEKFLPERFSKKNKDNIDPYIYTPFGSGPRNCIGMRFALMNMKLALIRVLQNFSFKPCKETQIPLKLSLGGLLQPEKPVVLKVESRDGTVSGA
structure (smiles),measurement,setting,value
CC(C)Nc1nc(N)nc(Cl)n1,Potency,[1],inactive
same,Potency,[2],inactive
same,activation,[3],inactive: -5.78% and inactive: 8.42%
same,activation,[4]; [22],inconclusive: -3.13%
same,activation,[4]; at 96 µM (top of the series),inactive: 5.67%
O=C=NC1CCC(CC2CCC(N=C=O)CC2)CC1 (configuration not stated),"activity change, negative = inhibition",[1],inconclusive: 14.5%
same,Potency,[5],inactive
same,activation,[2],inconclusive: 3.16%
same,Potency,[6],"inconclusive [side channel, falling, full curve, poor fit]"
same,Potency,[7],inactive
O=C(O)CCCCCCCCC(=O)O,Potency,[8],inactive
same,Potency,[9],inactive
same,max response,[10],inconclusive: -21.1%
same,Potency,[4]; [22],inactive
same,Potency,[7],inactive
C#CCOC(=O)[C@@H](C)Oc1ccc(Oc2ncc(Cl)cc2F)cc1,"activity change, negative = inhibition",[1],inconclusive: -31.3%
same,Potency,[11],inactive
c1ccc(OCCOc2ccccc2)cc1,Potency,[8],inactive
same,Potency,[5],inactive
same,Potency,[9],inactive
same,Potency,[11],"inconclusive [inhibitor, full curve]"
same,activation,[3],inactive: 0.795%
same,Potency,[4]; [22],inactive
same,Potency,[12],"inconclusive [activator, partial curve, poor fit]"
O=C1OC(=O)c2c(Br)c(Br)c(Br)c(Br)c21,Potency,[13],inactive
same,"activity change, negative = inhibition",[1],inconclusive: -24.4%
same,Potency,[9],inactive
same,Potency,[14],inactive
CCCCCCCCCCCCCCC,Potency,[8],inactive
C=CC(C)(O)CCC=C(C)C (configuration not stated),caspase-3 activation,[15],inactive: -1.78%
same,Potency,[16],"inconclusive [rising, single point]"
same,"activity change, negative = inhibition",[1],inconclusive: 1.4%
same,Potency,[9],inactive
same,Potency,[3],"inconclusive [side channel, falling, full curve, poor fit]"
same,activation,[4]; [22],inconclusive: 7.03%
C=C(C)C(=O)OCC(CC)(COC(=O)C(=C)C)COC(=O)C(=C)C,Potency,[1],"inconclusive [activator, partial curve, poor fit]"
same,Potency,[9],inactive
same,Potency,[6],"inconclusive [cytotoxic, side channel, full curve, poor fit]"
same,Potency,[4]; [22],inactive
same,max response,[17],inactive: -15.9%
CC(=O)Nc1ccc(C)cc1,Potency,[18],inactive
same,Potency,[19],inactive
same,Potency,[20],inactive
same,Potency,[21],"inconclusive [cytotoxic, partial curve, poor fit]"
same,Potency,[1],inactive
same,"activity, negative = inhibition",[9],inconclusive: 6.18%
same,Potency,[7],inactive
